The whole screen tested about 110,000 compounds, of which about 230 (0.21%) showed an effect of 50% or more. Some of the results follow.
Each molecule was assayed against DPAP1 (Plasmodium falciparum, UniProt Q8IIJ9) (assay: primary screen, percent inhibition; read by cleavage of a fluorogenic dipeptide substrate; higher = more effect of the substance).
Set-up: species or system P. falciparum D10 trophozoite lysates; single well
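Also: 30 min substrate incubation versus DMSO and 10 µM JCP410 controls.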

Sequence of DPAP1 (Q8IIJ9 whole entry, looked up): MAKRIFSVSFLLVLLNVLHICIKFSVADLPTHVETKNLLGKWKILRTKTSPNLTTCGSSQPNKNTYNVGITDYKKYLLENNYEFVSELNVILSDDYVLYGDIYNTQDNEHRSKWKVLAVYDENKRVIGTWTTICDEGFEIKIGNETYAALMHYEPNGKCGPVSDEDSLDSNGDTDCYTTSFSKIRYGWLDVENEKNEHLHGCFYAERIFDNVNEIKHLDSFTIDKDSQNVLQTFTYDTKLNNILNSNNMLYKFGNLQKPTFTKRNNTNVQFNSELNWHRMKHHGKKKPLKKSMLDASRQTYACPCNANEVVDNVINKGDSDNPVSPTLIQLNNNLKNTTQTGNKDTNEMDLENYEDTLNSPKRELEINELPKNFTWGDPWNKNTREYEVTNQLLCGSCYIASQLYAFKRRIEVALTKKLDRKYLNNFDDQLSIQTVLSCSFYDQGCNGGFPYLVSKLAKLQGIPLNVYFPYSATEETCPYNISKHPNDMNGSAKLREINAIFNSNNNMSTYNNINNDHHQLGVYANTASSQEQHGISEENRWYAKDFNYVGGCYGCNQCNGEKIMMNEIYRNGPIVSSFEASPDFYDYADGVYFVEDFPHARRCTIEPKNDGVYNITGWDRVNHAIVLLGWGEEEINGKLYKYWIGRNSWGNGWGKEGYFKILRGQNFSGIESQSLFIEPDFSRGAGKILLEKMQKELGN

SMILES	% Inhibition @ 10 uM [%]
CCOC(=O)C1CCCCN1Cc1c(F)cccc1Cl (stereo not drawn)	-4.75
N#CC1=C(N)OC2=C(C(=O)CC(c3ccccc3)C2)C1c1cccc(F)c1 (stereo not drawn)	-4.02
CCOc1ccc(CCNC(=O)CCc2nnc3n(CCC(C)C)c(=O)c4ccccc4n23)cc1	3.54
O=C1c2ccc(Br)cc2C(=O)N1CCO	-5.65
CCOC(=O)c1cnc(SCC(=O)Nc2nc3ccccc3s2)nc1N	-2.92
NC(=O)COc1ccc(-c2noc(-c3cccs3)n2)cc1	-7.38
COc1ccc(CNC(=O)CN(Cc2ccccc2)S(=O)(=O)c2ccccc2)cc1	2.22
Cc1cccc(NC2=NC(=O)/C(=C3/C(=O)Nc4ccccc43)S2)c1C	-0.0938
Cc1ccc(-n2nc3c(=O)n(CC(=O)NCc4ccc(C)o4)nc(C)c3c2C)cc1	-11.9
COc1cccc(C2=NOC(C(=O)N3CCCC3)C2)c1 (stereo not drawn)	-3.45
COc1ccc(-n2nc3c(N4CCC(C(=O)NCCc5ccco5)CC4)nnc(C)c3c2C)cc1	12.1
COc1ccc(N2C(N)=C(C#N)C(c3ccc(Br)cc3)C3=C2CCCC3=O)cc1 (stereo not drawn)	0.983
CC(C)CC(C(=O)NCC#N)c1cccc(-c2ccc(S(=O)(=O)N3CCN(CCO)CC3)cc2)c1 (stereo not drawn)	1.7
CCOC(=O)c1c(S(=O)(=O)Nc2cccnc2)c(C)n(C)c1C	-5.57
CSc1ccc(CN2CCC(O)CC2)cc1	-3.82
CCc1c(O)n(-c2ccccc2)c2ccc(Cl)n[n+]2c1=O	-4.31
CSc1ccccc1NS(=O)(=O)c1cccc2cccnc12	-3.19
C=CCN1C(=O)NC(C(F)(F)F)(C(F)(F)F)N=C1c1ccccc1	-1.11
COCCCNC(=O)c1cc(-c2ccc(C)s2)nc2ccccc12	-0.132
CC1CCCN(c2nc3nonc3nc2Nc2ccc3c(c2)OCO3)C1 (stereo not drawn)	-7.62
c1ccc(COc2cccc(CNCc3cccnc3)c2)cc1	2.44
COc1ccc(-c2csc(C(=O)N[C@@H](CC(C)C)C(=O)NCC#N)c2)cc1	-0.207
COc1cccc(NC2=C(Cl)C(=O)N(c3cccc(C)c3)C2=O)c1	-1.84
O=C(CN1C(=O)S/C(=C/c2ccncc2)C1=O)Nc1ccccc1	3.83
CC(=O)Nc1ccc(NC(=O)COc2ccc(C)cc2)cc1C	-5.23
O=C(O)CSc1cccc(C(=O)O)c1	3.25

SMILES	% Inhibition @ 10 uM [%]
CCCC1CCc2c(sc(NC(=O)c3cccnc3Cl)c2C(N)=O)C1 (stereo not drawn)	7.02
COc1ccc2cc(C(=O)Nc3cccc(C(F)(F)F)c3)sc(=O)c2c1OC	2.76
CC(C)C1(C)NCCN2C(=O)CSC21 (stereo not drawn)	3.76
CN(CC(=O)Nc1cccc(Br)c1)S(=O)(=O)c1ccc(F)cc1	-2.8
Cc1ccc(S(=O)(=O)N2CCC(C(=O)O)CC2)cc1F	-4.91
CCn1cc(/C=C(\NC(=O)c2ccccc2OC)C(=O)NCc2ccco2)c2ccccc21	1.64
COc1ccccc1NC(=O)c1cc(Cl)cc(Cl)c1OC	-0.999
Cc1cccc(CNC(=O)CSc2nnc(C)c3c(C)n(-c4ccccc4)nc23)c1	0.535
Cc1nn(-c2ccccn2)c2c1C(=O)C(C#N)CC2 (stereo not drawn)	2.57
O=C(Nc1nc2ccccc2s1)c1cc2cc(Cl)ccc2oc1=O	-1.12
CCCCN(C)CCCNC(=O)c1cc(O)nc2ccc(S(=O)(=O)N3CCCCC3C)cc12 (stereo not drawn)	-1.34
COc1ccc(C(=O)Nc2ccc(F)c(Cl)c2)cc1OC	-2.17
Cc1c2cnn(CC(=O)NCCCN3CCN(C)CC3)c(=O)c2c(C)n1Cc1ccccc1F	-5.81
CN(C1CCCCC1)S(=O)(=O)c1ccc2[nH]cc(C=O)c2c1	-2.22
CCC1=C(c2ccc(C)cc2)S(=O)(=O)N=C1N1CCC(C(=O)NCCC2=CCCCC2)CC1	0.762
Cn1c(C(=O)O)c(CNC2CCCc3ccccc32)c2ccccc21 (stereo not drawn)	0.277
CCNc1ncnc2c1cnn2C	-4.28
Cc1ccc(CSCC(=O)NC2CCCC2)cc1	2.18
CC(=O)N1N=C(c2ccncc2)OC12CCCCCC2	-3.83
Cc1n[nH]c(C)c1S(=O)(=O)N1CCC(C(=O)NCc2ccccc2Cl)CC1	-5.67
O=S(=O)(Nc1ccc(F)c(Cl)c1)c1ccccc1	-1.56
CCc1cccc2c(C#N)cn(CC(=O)NCCOC)c12	-1.84
Cc1ccc2c(c1)c1c3n2CCN(C2CCO2)C3CCC1 (stereo not drawn)	2.25
CC1CCN(c2nc3nonc3nc2Nc2cccc(Cl)c2)CC1	4.88
Cc1oc(-c2ccc(Cl)cc2)nc1CN1CCCC(C(=O)NC2CCC(C)CC2)C1 (stereo not drawn)	-4.71
COc1cc(-c2nc3nc4c(c(O)n3n2)CCC4)cc(OC)c1OC	2.62

SMILES	% Inhibition @ 10 uM [%]
CC(C)c1ccc(/C=C/C(=O)N2CCCCCC2)cc1	-2
COc1ccc(CNC(=O)CN2C(=O)CSc3nc(C)cc(C)c32)cc1	-0.637
Cc1nnc(NCc2ccccc2Cl)c2c1nnn2Cc1ccc(F)cc1	3.27
O=C(NCc1ccc2c(c1)OCO2)C1CCCN(c2nc3ccsc3c(=O)s2)C1 (stereo not drawn)	-2.74
CN1CCN(c2ccc(N3CCN(C)CC3)nn2)CC1	0.266
CCC(=O)N1N=C2c3ccc(OC)cc3CCC2C1c1ccc(Br)cc1 (stereo not drawn)	-1.43
c1ccc(CNc2nc3ncccc3nc2-c2ccccc2)cc1	-2.25
Cc1onc(-c2c(Cl)cccc2Cl)c1C(=O)N1CCCC1	3.44
CN1C(c2ccccc2)CC(=O)CC1c1ccccc1 (stereo not drawn)	-0.771
CC12C(=O)N(c3ccccc3O)C(=O)C1C1C=CC2C1 (stereo not drawn)	2.69
CCC(C(=O)Nc1nc2nc(-c3ccccc3)cc(O)n2n1)c1ccccc1 (stereo not drawn)	2.05
Cn1c(NC(=O)c2ccc(F)cc2)nc2ccccc21	1.64
COc1cccc(NC(=O)CNS(=O)(=O)c2cc(Cl)ccc2Cl)c1	-2.28
CC(NC(=O)C1CCCN(S(=O)(=O)N2CCOCC2)C1)C12CC3CC(CC(C3)C1)C2 (stereo not drawn)	-2.56
O=C(NCCO)/C(=C\C=C\c1ccccc1)NC(=O)c1ccccc1Cl	17.9
COc1ccc(-c2cc(C(=O)N3N=C(C(F)F)CC3(O)C(F)F)c3ccccc3n2)cc1OC (stereo not drawn)	-5.06
Cc1sc2nc(SCC(=O)N3CCN(CCO)CC3)nc(O)c2c1C	6.23
Cc1nc2ccc(S(=O)(=O)N(C)CC(=O)Nc3nccs3)cc2s1	2.76
Cn1c(=O)c2c(nc(SCC(=O)N3CCOCC3)n2Cc2cccc(F)c2)n(C)c1=O	1.37
CC(=O)Nc1ccccc1SCC(=O)Nc1ccc(Cl)cc1	0.889
CC(C)c1ccc2oc(-c3ccc(N)cc3O)nc2c1	-2.88
CC1SC(c2ccc(Br)cc2)N(c2ccccc2)C1=O (stereo not drawn)	0.661
OCC1CCCN1Cc1ccc(F)c(Br)c1 (stereo not drawn)	3.48
Cc1c(C(=O)NC(C)(C)C)sc2nc(-c3ccc(F)cc3)cn12	1.55
CC1=NC2(CCCCCC2)Cc2ccccc21	-2.16
COC(=O)NC(=O)C(=CNCc1ccc(Cl)c(Cl)c1)C(=O)NC(=O)OC	2.13

SMILES	% Inhibition @ 10 uM [%]
O=C(NCc1c(O)c(Cl)cc(Cl)c1Cl)c1ccccc1	-6.99
CSc1ccc(Cl)c(C(=O)Nc2cccc(C)n2)c1	2.67
CCN1CCN(C/C=C/c2ccccc2)CC1	-5.42
O=C(O)c1ccc(NS(=O)(=O)c2cccc(C(=O)Nc3ccccc3[N+](=O)[O-])c2)cc1	4.82
CS(=O)(=O)c1ccc2nc(NC(=O)c3cccs3)sc2c1	-4.33
CCCCNC(=O)Cn1nnc2sc3c(c2c1=O)CCCC3	0.758
O=C(Cn1nc(-c2ccccc2)c2ccccc2c1=O)N1CCCCC1	3.06
CC(C)(C)c1ccc(C(=O)Nc2ccc(Cl)nc2)cc1	2.5
COc1cc2nc(O)n3nc(C)nc3c2cc1OC	-0.326
CC(CCc1ccccc1)NC(=O)c1cccs1 (stereo not drawn)	3.47
COc1cc(C2CC(=O)N3C(=C2C#N)SCC3(O)c2ccco2)cc(OC)c1OC (stereo not drawn)	-1.74
Cc1ccc(-c2noc(CCC(=O)N3CCC(Cc4ccccc4)CC3)n2)cc1	2.9
O=C(C1CC(c2ccc(F)cc2)=NO1)N1CCc2ccccc2C1 (stereo not drawn)	-0.431
CC1(C)CC2(CC(c3ccccc3F)c3ccc(O)c(O)c3O2)NC(=S)N1 (stereo not drawn)	-2.5
O=C(c1cc2nc(-c3ccccc3)cc(C(F)(F)F)n2n1)N1CCOCC1	1.87
CC(=O)c1cnc2c(-c3ccccc3)c(-c3ccccc3)nn2c1C	-0.13
CC1CCC(NC(=O)C2CCCN2S(=O)(=O)c2ccc3[nH]c(-c4ccccc4)nc3c2)CC1 (stereo not drawn)	4.92
CCn1c(C)cc(/C=C2\SC(=O)N(CC(=O)Nc3ccccc3)C2=O)c1C	0.161
CC(C)Oc1cccc(C(=O)Nc2ccc(Cl)cn2)c1	-13.4
CN1CCCN(C2CC(=O)N(c3ccccc3)C2=O)CC1 (stereo not drawn)	-4.41
Cc1ccc(C)c(CN2CCCN(C)CC2)c1	1.48
Nc1c(C(=O)Nc2ccc(Cl)cc2)sc2nc3c(cc12)CCC3	0.931
CCN(CC)CCCNc1oc(/C=C/c2ccccc2OC)nc1C#N	-0.808
CSc1cccc(/N=C2/S/C(=C/c3cccnc3)C(=O)N2C)c1	0.722
